Patent US20230056205A1, “SUBSTITUTED 4,6-DIHYDROSPIRO[[1,2,3]TRIAZOLO[4,5-B]PYRIDINE-7,3'-INDOLINE]-2',5(3H)-DIONE ANALOGUES” (The Board of Regents of The University of Texas System, priority 2019, published 2023)

Assays:
[1] = system: DENV-2 strain D2Y98P; experiment: Viral titer reduction assay, DENV-2 strain D2Y98P; details: Dengue virus, DENV2, Huh-7; viral titer reduction assay on Huh7 cells
Experimental: Viral Titer Reduction Assay. Huh7 cells were seeded in a 96-well plate. The next day, cells were infected with DENV-2 strains NGC or D2Y98P at a MOI of 0.3 in the presence of 2-fold serial dilutions of compounds. Experiments were performed in triplicates. After incubation at 37° C. for 48 h, cell culture fluids were harvested. The infectious viruses in the culture fluids were determined by plaque assay using a protocol as described previously.^48 The EC50 values were calculated using four parameter logistic regression in GraphPad software Prism 8.0.

[2] = system: DENV-2 strain D2Y98P; experiment: In vivo efficacy, dengue viremia A129 mouse model; details: 100 mg/kg orally twice daily for 3 days
Experimental: In Vivo Efficacy Studies. Animal studies were performed as approved by the University of Texas Medical Branch (UTMB) Institutional Animal Care and Use Committee (IACUC). All efforts were made to minimize animal suffering. The in vivo efficacy of compound 15 was evaluated in a dengue viremia model.^57 3-week-old A129 mice (with knockout of IFN-α/β receptors) and DENV-2 strain D2Y98P were used in this model. The virus stock was propagated in BHK-21 cells grown in RPMI 1640 medium. 100 µL (10^7 PFU/ml) of D2Y98P viruses were injected subcutaneously (S.C.) into the mice. The mice (n = 6 per group) immediately were dosed orally twice daily (BID) with compound 15 (100 mg/kg) or the vehicle for 3 days. The compound was reconstituted as a suspension in the vehicle solution containing 2.5% DMSO, 50% PEG-400 and 47.5% DPBS. On day 3 post-infection (p.i.), the mice were bled via the retro-orbital (R.O.) route. The plasma was collected and used for measuring the viral loads in the sera (Viremia) by plaque assay. The means and standard deviations were presented. Statistical analysis was performed by an unpaired parametric test using Prism software (GraphPad). Mouse weight was carefully monitored for 12 d after infection. A two-way ANOVA with multiple comparison was performed to analyze the statistically significant difference between compound 15 and vehicle-treated groups.

With `CC(C)CCN1C(=O)[C@]2(CC(=O)Nc3c2nnn3[C@@H](C)c2ccc(Cl)cc2)c2cc(Cl)ccc21` [Compound 15, (R)-5'-Chloro-3-((S)-1-(4-chlorophenyl)ethyl)-1'-isopentyl-4,6-dihydrospiro[[1,2,3]triazolo[4,5-b]pyridine-7,3'-indoline]-2ʹ,5(3H)-dione] the EC50 [1] was ~100 nM, the “morbidity caused by DENV-2 infection (mouse body weight)” value [2] was “eliminated the morbidity” and the reduction of viremia ([2]; day 3 p.i., vs vehicle, p = 0.0051) was 2.4 log.
